PubChem BioAssay AID624171 (National Center for Advancing Translational Sciences (NCATS), 2012)
Out of some 410,000 compounds screened, about 1,200 (0.29%) were called active. Not shown: some 2% with an inconclusive outcome. Calls follow the shape of the dose curve; as a rule, active = well fitted activation curve with a large enough effect; inconclusive = small, poorly fitted or top-dose-only effect; inactive = flat fitted curve, though single readings scatter. The entries are a selection whose mix differs from that of the whole data set.

Assay: qHTS of Nrf2 Activators; also: nearly all actives have a fitted effect of over 65% in size; as to activation: % of control where 0% means no effect
Details: AREc32 ARE-luciferase reporter (MCF7-derived line), luminescence, 24 h; series mostly up to 46.1 µM; activation: at the top concentration
Description: Many diseases have some form of oxidative stress injury and ties to inflammation, causing a host of problems for the patient. The antioxidant response element (ARE) plays an important role in alleviating the harmful effects of oxidative stress. The antioxidant response element (ARE) is a transcriptional regulatory element involved in the activation of genes coding for a number of antioxidant proteins and detoxifying enzymes. These enzymes work in concert to protect tissues from oxidative insults and chemical toxicities in human hepatocytes and immune cells. The protective effects of ARE activation are primarily triggered through Nrf2 (NF-E2-related factor) binding to and activating AREs. It is known that Nrf2 controls the production of over 250 antioxidant and detoxification proteins (Hu et al., 2006), thereby protecting tissues by increasing cellular antioxidant content and suppressing inflammatory signaling pathways. The transcription factor Nrf2 is a central link between oxidative chemicals, such as phenolic antioxidants and electrophilic compounds, and the activation of ARE. Nrf2 levels are constitutively low as a consequence of its interaction with Keap1, which targets its degradation (Zipper and Mulcahy, 2002). Electrophiles react with key cysteine residues in Keap1, releasing Nrf2 and allowing its translocation to the nucleus. Once within the nucleus, Nrf2 complexes with coactivators such as p300, and binds to the AREs to induce gene transcription of cytoprotective enzymes, resulting in the prevention of toxicity. Activation of Nrf2 protects tissues by increasing cellular antioxidant content and suppressing inflammatory signaling pathways. Identifying novel and potent Nrf2 activators by using the AREc32 cell line to detect ARE activation by small molecules will lead to the identification and development of probes to study protective pathways in multiple tissues. These specific probes are essential to study the ARE pathway, and eventually to determine whether this pathway does activate genes that could protect against a host of diseases, including cardiovascular diseases, obesity, diabetes, Alzheimer's, and Parkinson's disease.
This project's aim is to identify novel and potent Nrf2 activators by using the AREc32 cell line to detect ARE activation by small molecules, which will lead to the identification and development of probes to study the ARE pathway.
NIH Chemical Genomics Center [NCGC]
NIH Molecular Libraries Probe Centers Network [MLPCN]
Assay Submitter (PI): Curtis Klaassen, University of Kansas Medical Center
5 uL of 1000 cells/well of AREc32_Fluc cells are seeded into 1536-well plate in OPTI-MEM medium with 5% FBS. The plates are incubated overnight at 37 deg C with 5% CO2. Then through pin tool transfer, 23 nL of compounds are added to each well before a 24 hr incubation at 37 deg C with 5% CO2. After the addition of 2.5 uL of Steady-Glo. the plates are kept at RT for 30 min, before they are read on the ViewLux.
Potency is read from the fitted curve at half-maximal effect.

Compound | Potency | activation
Cc1ccc(NCCC(=O)c2cccs2)cc1C | active: 22.4 µM | –
Cc1cc(NCc2ccco2)n2c(nc3ccccc32)c1C#N | active: 5.01 µM | –
O=C(O)c1cc(-c2ccco2)nc2ccc(Br)cc12 | – | inactive: 18.7%
Cc1ccc(C(=O)/C=C\C(=O)c2ccc(C)cc2)cc1 | – | inactive: 4.02%
Clc1ccccc1CN1CCN(/N=C/C=C\c2ccco2)CC1 | – | inactive: 16.6%
O=C(CCn1c(=O)c2cccn2c2ccccc21)Nc1ccc(F)cc1 | – | inactive: 22.7%
c1ccc(CSc2ncnc3sccc23)cc1 | active: 11.2 µM | –
Cc1ccc(CN2CCN(/N=C/C(Br)=C\c3ccccc3)CC2)cc1 | – | inactive: 22.9%
O=C(CN1CCN(Cc2ccccc2)CC1)N/N=C/C=C/c1ccco1 | – | inactive: 16% [at 9.22 µM]
Cc1ccc(O)c(NC(=O)c2noc3c2CCCCC3)c1 | – | inactive: 22.5%
O=C1NC(=Nc2ccccc2)S/C1=C/c1cccs1 | – | inactive: 27.6%
COC(C[C@@H]1O[C@@H]1C(=O)[C@@H](C)OCc1ccccc1)OC | – | inactive: -0.0164%
CC(=C/C(=O)O)/C=C/c1ccc(Cl)o1 | – | inactive: 16.4%
Cc1cccc(NC(=O)Nc2ccc(Br)cc2)n1 | – | inactive: 22.7%
CC1=NN(c2ccccc2)C(=O)/C1=C/C=C/c1ccccc1 | active: 11.2 µM | –
O=C(COc1cccnc1[N+](=O)[O-])Nc1cccc2ccccc12 | active: 5.62 µM | –
O=C1/C(=C\c2ccc3c(c2)OCO3)CCC/C1=C/c1ccc2c(c1)OCO2 | – | inactive: 7.34%
Oc1cc2c(cc1O)C(c1ccccc1)CNCC2 (stereo not drawn) | – | inactive: 9.48%
COC(=O)N1C(=O)[C@@](c2ccc(OC)cc2)(C(C)C)N1C(=O)OC | – | inactive: 27.6%
COC(C/C=C/C(=O)[C@H](C)OCc1ccccc1)OC | – | inactive: -2.67%
CN1CCN(Cc2nc3ccccc3c(=O)n2Cc2nc(-c3ccc4ccccc4c3)cs2)CC1 | – | inactive: -1.87%
Cn1ccnc1SCC(=O)c1ccc(Cl)cc1 | – | inactive: 26.3%
Cc1[nH][nH]c(=O)c1C(c1ccccc1[N+](=O)[O-])C(C#N)C#N (stereo not drawn) | – | inactive: -0.569%

Compound | Potency | activation
COc1cc(/C=C2/SC(=S)N(CCC(=O)N3CCN(C)CC3)C2=O)cc(OC)c1OC | – | inactive: 6.53%
COC(C[C@H]1O[C@H]1C(=O)[C@H](C)OCc1ccccc1)OC | – | inactive: 4.05%
CN(C)/C=C1\C=C(c2ccccc2)OC1=O | – | inactive: 12.3%
N#C/C(=C(/O)COC(=O)CCCNC(=O)c1ccc(Cl)cc1)c1nc2ccccc2[nH]1 | – | inactive: 5.64%
O=C(/C=C/Nc1cccc(O)c1)c1ccccc1 | active: 14.1 µM | –
CC(C)N1C(=O)/C(=C\c2nc3ccccc3c(=O)n2-c2ccccc2)c2ccccc21 | – | inactive: 18.1%
O=C(Nc1nc2cc3c(cc2s1)OCCO3)c1ccc([N+](=O)[O-])o1 | active: 7.08 µM | –
CN1c2ccccc2C(C)(C)C12C=Cc1cc(O)ccc1O2 (stereo not drawn) | – | inactive: 12.2%
O=C(Nc1nnc([C@H]2C[C@H](O)[C@@H](CO)O2)s1)c1cccc(OC(F)(F)F)c1 | – | inactive: 15.5%
O=C(CCc1nc2ccccc2c(=O)[nH]1)Nc1nc(-c2cccs2)cs1 | active: 10 µM | –
COC(C[C@H]1O[C@H]1C(=O)[C@@H](C)OCc1ccccc1)OC | – | inactive: 3.08%
O=C(Nc1ccc(Cl)cc1)Nc1ccccn1 | active: 10 µM | –
CCCCN(CC)CCCNC(=O)c1cc2c(-c3ccc(OC)c(OC)c3)nn(C)c2s1 | – | inactive: 9.01%
CCn1c(=O)c([N+](=O)[O-])c(NCc2ccco2)c2ccccc21 | active: 8.91 µM | –
CCOc1cccc(CNc2ccc(O)cc2)c1OCc1ccccc1Cl | – | inactive: 6.63%
Cc1ccc(C2C(C#N)=C(N)Oc3cc(C)oc(=O)c32)o1 (stereo not drawn) | – | inactive: 11.7%
COC(C[C@@H]1O[C@@H]1C(=O)[C@H](C)OCc1ccccc1)OC | – | inactive: 0.628%
O=C(/C=C/c1ccco1)Oc1cccc2cccnc12 | – | inactive: 14.3%
O=[N+]([O-])c1cccc(C=NN=Cc2ccccc2O)c1 | active: 10 µM | –
CSc1nnc(N2C(=O)C(O)=C(C(=O)c3ccco3)C2c2ccccc2F)s1 (stereo not drawn) | active: 14.1 µM | –
Cc1ccn2c(Nc3ccc4c(c3)OCO4)c(-c3ccc(O)cc3)nc2c1 | – | inactive: 21.3%
COc1cccc(NC(=O)CSc2c3c(nc4ccccc24)CCCC3)c1 | – | inactive: -2.63%
Cc1c(N2C(=O)/C(=C\C3CC=CCC3)SC2=S)c(=O)n(-c2ccccc2)n1C (stereo not drawn) | – | inactive: 25.3%

Compound | Potency | activation
c1coc(-c2cnc3ccccc3n2)c1 | active: 3.98 µM | –
CC[n+]1c(/C=C2/C=C(C)CC(C)C2)sc2ccccc21 (stereo not drawn) | – | inactive: 21.6%
COCCCNC(=O)CSc1c2c(nc3ccc(Cl)cc13)CCCC2 | – | inactive: 26.3%
O=C(CCN1C(=O)/C(=C\c2ccccc2)SC1=S)NCCCN1CCOCC1 | – | inactive: 4.08%
Cc1ccc2nc(-c3ccc(O)cc3)c(Nc3ccc4c(c3)OCCO4)n2c1 | – | inactive: 16.3%
CCC1CCCCN1CCCNC(=O)c1cc2c(Cl)nc3ccccc3c2s1 (stereo not drawn) | – | inactive: 16.7%
O=C1NC(=O)/C(=C/c2ccccc2OCc2ccccc2)S1 | – | inactive: 13.3%
COC(=O)N1C(=O)[C@@](c2ccccc2)(C2CCCCC2)N1C(=O)OC | – | inactive: 10.6%
NC(=O)C1=C[C@H](c2csc3ccccc23)C[C@H](OCc2ccc(CO)cc2)O1 | – | inactive: 7.1%
CC(=O)NN1C(=O)/C(=C\c2ccc(Br)o2)SC1=S | active: 15.8 µM | –
COc1ccc(NC2=C(Cl)C(=O)N(CCc3ccccc3)C2=O)c(OC)c1 | active: 12.6 µM | –
COc1ccccc1/C=C/c1nc(C#N)c(N(C)C)o1 | – | inactive: 17.6%
Cc1ccc(N(C(=O)CCl)C(C(=O)NC2CCCCC2)c2cccnc2)cc1C (stereo not drawn) | active: 14.1 µM | –
CCOc1ccc(C(=O)CC(C(=O)O)N2CCCCC2)cc1 (stereo not drawn) | active: 15.8 µM | –
COc1ccc(Cl)cc1-c1nc(-c2ccncc2)no1 | active: 6.31 µM | –
CS(=O)(=O)c1nc(S(=O)(=O)c2ccc(Cl)cc2)c(N2CCOCC2)s1 | active: 6.31 µM | –
O=C(NC(=S)Nc1ccccc1Br)c1ccco1 | active: 14.1 µM | –
O=C(Nc1ccccn1)c1csc2c1CCCC2 | active: 5.01 µM | –
Cc1ccccc1NC(=O)c1cc2ccccc2o1 | – | inactive: 25.6% [at 9.22 µM]
Cc1cc(C)nc(N/N=C/C2=C(N3CCOCC3)C(=C\c3ccc(Cl)cc3)/CC2)n1 | – | inactive: 21.6%
N#C/C(=C\C=C\c1ccccc1)C(=O)Nc1ccccc1 | – | inactive: 14.3%
NC(=O)c1ccsc1NC(=O)COC(=O)C1CCCN1C(=O)c1cccs1 (stereo not drawn) | – | inactive: 29.2%
